# The list shows a part of the results.
# Molecular target: T1, MBP-FoxP1dN (Mus musculus, UniProt P58462 326-579)
# T1 sequence: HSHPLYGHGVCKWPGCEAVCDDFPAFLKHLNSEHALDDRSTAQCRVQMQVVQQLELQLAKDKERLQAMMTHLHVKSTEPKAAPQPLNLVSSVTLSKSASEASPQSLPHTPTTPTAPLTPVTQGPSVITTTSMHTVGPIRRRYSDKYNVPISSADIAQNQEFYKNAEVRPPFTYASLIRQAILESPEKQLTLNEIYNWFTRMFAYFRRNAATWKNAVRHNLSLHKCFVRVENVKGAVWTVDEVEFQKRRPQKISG
# Test: PD-seq (MBP pull-down with sequencing); 20 mM Tris-HCl pH 7.5, 100 mM NaCl, 1.5 mM MgCl2, 0.4 uM protein, 0.1 uM dsDNA library, 30 min, room temperature, amylose pull-down; high values mean tight binding
# Settings: protein: recombinant; tags: His6-MBP; chain copies: 2; dsDNA, one strand shown
# Procedure, shortened: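 Binding is the reads-per-million enrichment of pull-down relative to input, pooled across replicates. For this, 0.4 µM His6-MBP-tagged mouse FoxP3 or FoxP1 fragment lacking the N-terminus, made in E. coli, was incubated with 0.1 µM Klenow-filled double-stranded degenerate DNA library for 30 min at room temperature in Tris pH 7.5 buffer with NaCl and MgCl2. Complexes bound to amylose resin were washed three times before proteinase K released the DNA for PCR barcoding and Illumina sequencing.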
row,Sequence,binding signal
1,GATGATTGTTCTCCCAGCTGATGAATTAAATGGTTCGAGTAAACAAATTTTCCTAATCTTTCTGTTCAAGCGCCATCTAC,0.962 RPM ratio (pull-down/input)
2,GATGATTGTTCTCCCAGCTGATGAATTGGTGCCCTCGAGTAAACAAATTTTCCTAATCTTTCTGTTCAAGCGCCATCTAC,0.87 RPM ratio (pull-down/input)
3,GATGATTGTTCTCCCAGCTGATGAATTTAGCGACTCGAGTAAACAAATTTTCCTAATCTTTCTGTTCAAGCGCCATCTAC,0.682 RPM ratio (pull-down/input)
4,GATGATTGTTCTCCCAGCTGATGAATTTAGCAGTTCGAGTAAACAAATTTTCCTAATCTTTCTGTTCAAGCGCCATCTAC,0.973 RPM ratio (pull-down/input)
5,GATGATTGTTCTCCCAGCTGATGAATTACTCATTTCGAGTAAACAAATTTTCCTAATCTTTCTGTTCAAGCGCCATCTAC,1.12 RPM ratio (pull-down/input)
6,GATGATTGTTCTCCCAGCTGATGAATTCATTGAGTCGAGTAAACAAATTTTCCTAATCTTTCTGTTCAAGCGCCATCTAC,0.913 RPM ratio (pull-down/input)
7,GATGATTGTTCTCCCAGCTGATGAATTTAATTAATCGAGTAAACAAATTTTCCTAATCTTTCTGTTCAAGCGCCATCTAC,0.987 RPM ratio (pull-down/input)
8,GATGATTGTTCTCCCAGCTGATGAATTTTGGGAATCGAGTAAACAAATTTTCCTAATCTTTCTGTTCAAGCGCCATCTAC,0.94 RPM ratio (pull-down/input)
9,GATGATTGTTCTCCCAGCTGATGAATTCCGGCCTTCGAGTAAACAAATTTTCCTAATCTTTCTGTTCAAGCGCCATCTAC,0.761 RPM ratio (pull-down/input)
10,GATGATTGTTCTCCCAGCTGATGAATTGACATGCTCGAGTAAACAAATTTTCCTAATCTTTCTGTTCAAGCGCCATCTAC,1.17 RPM ratio (pull-down/input)
11,GATGATTGTTCTCCCAGCTGATGAATTTGCCCCATCGAGTAAACAAATTTTCCTAATCTTTCTGTTCAAGCGCCATCTAC,0.933 RPM ratio (pull-down/input)
12,GATGATTGTTCTCCCAGCTGATGAATTGATCATCTCGAGTAAACAAATTTTCCTAATCTTTCTGTTCAAGCGCCATCTAC,0.957 RPM ratio (pull-down/input)
13,GATGATTGTTCTCCCAGCTGATGAATTGTTTACCTCGAGTAAACAAATTTTCCTAATCTTTCTGTTCAAGCGCCATCTAC,2.65 RPM ratio (pull-down/input)
14,GATGATTGTTCTCCCAGCTGATGAATTCCTATCATCGAGTAAACAAATTTTCCTAATCTTTCTGTTCAAGCGCCATCTAC,0.891 RPM ratio (pull-down/input)
15,GATGATTGTTCTCCCAGCTGATGAATTTCTCCGTTCGAGTAAACAAATTTTCCTAATCTTTCTGTTCAAGCGCCATCTAC,0.952 RPM ratio (pull-down/input)
16,GATGATTGTTCTCCCAGCTGATGAATTTTGGTATTCGAGTAAACAAATTTTCCTAATCTTTCTGTTCAAGCGCCATCTAC,1.06 RPM ratio (pull-down/input)
17,GATGATTGTTCTCCCAGCTGATGAATTCAATATTTCGAGTAAACAAATTTTCCTAATCTTTCTGTTCAAGCGCCATCTAC,0.919 RPM ratio (pull-down/input)
18,GATGATTGTTCTCCCAGCTGATGAATTTCCGAGCTCGAGTAAACAAATTTTCCTAATCTTTCTGTTCAAGCGCCATCTAC,0.806 RPM ratio (pull-down/input)
19,GATGATTGTTCTCCCAGCTGATGAATTCCTGTGGTCGAGTAAACAAATTTTCCTAATCTTTCTGTTCAAGCGCCATCTAC,0.912 RPM ratio (pull-down/input)
20,GATGATTGTTCTCCCAGCTGATGAATTGATTGTGTCGAGTAAACAAATTTTCCTAATCTTTCTGTTCAAGCGCCATCTAC,1.35 RPM ratio (pull-down/input)
21,GATGATTGTTCTCCCAGCTGATGAATTGAACTAATCGAGTAAACAAATTTTCCTAATCTTTCTGTTCAAGCGCCATCTAC,0.992 RPM ratio (pull-down/input)

row,Sequence,binding signal
1,GATGATTGTTCTCCCAGCTGATGAATTGAGAAAATCGAGTAAACAAATTTTCCTAATCTTTCTGTTCAAGCGCCATCTAC,0.951 RPM ratio (pull-down/input)
2,GATGATTGTTCTCCCAGCTGATGAATTAGTTATCTCGAGTAAACAAATTTTCCTAATCTTTCTGTTCAAGCGCCATCTAC,0.936 RPM ratio (pull-down/input)
3,GATGATTGTTCTCCCAGCTGATGAATTGGAGGAATCGAGTAAACAAATTTTCCTAATCTTTCTGTTCAAGCGCCATCTAC,0.873 RPM ratio (pull-down/input)
4,GATGATTGTTCTCCCAGCTGATGAATTATGGCAATCGAGTAAACAAATTTTCCTAATCTTTCTGTTCAAGCGCCATCTAC,1.23 RPM ratio (pull-down/input)
5,GATGATTGTTCTCCCAGCTGATGAATTCTCGTCGTCGAGTAAACAAATTTTCCTAATCTTTCTGTTCAAGCGCCATCTAC,0.825 RPM ratio (pull-down/input)
6,GATGATTGTTCTCCCAGCTGATGAATTGTCTTCGTCGAGTAAACAAATTTTCCTAATCTTTCTGTTCAAGCGCCATCTAC,1.07 RPM ratio (pull-down/input)
7,GATGATTGTTCTCCCAGCTGATGAATTAGGCTGATCGAGTAAACAAATTTTCCTAATCTTTCTGTTCAAGCGCCATCTAC,0.857 RPM ratio (pull-down/input)
8,GATGATTGTTCTCCCAGCTGATGAATTTCCTCGCTCGAGTAAACAAATTTTCCTAATCTTTCTGTTCAAGCGCCATCTAC,0.827 RPM ratio (pull-down/input)
9,GATGATTGTTCTCCCAGCTGATGAATTGAAATTGTCGAGTAAACAAATTTTCCTAATCTTTCTGTTCAAGCGCCATCTAC,1.01 RPM ratio (pull-down/input)
10,GATGATTGTTCTCCCAGCTGATGAATTCAAGTTATCGAGTAAACAAATTTTCCTAATCTTTCTGTTCAAGCGCCATCTAC,0.942 RPM ratio (pull-down/input)
11,GATGATTGTTCTCCCAGCTGATGAATTTGTGCTATCGAGTAAACAAATTTTCCTAATCTTTCTGTTCAAGCGCCATCTAC,1.26 RPM ratio (pull-down/input)
12,GATGATTGTTCTCCCAGCTGATGAATTGAGCGAGTCGAGTAAACAAATTTTCCTAATCTTTCTGTTCAAGCGCCATCTAC,0.833 RPM ratio (pull-down/input)
13,GATGATTGTTCTCCCAGCTGATGAATTAGCAGCTTCGAGTAAACAAATTTTCCTAATCTTTCTGTTCAAGCGCCATCTAC,0.836 RPM ratio (pull-down/input)
14,GATGATTGTTCTCCCAGCTGATGAATTATAATCTTCGAGTAAACAAATTTTCCTAATCTTTCTGTTCAAGCGCCATCTAC,0.909 RPM ratio (pull-down/input)
15,GATGATTGTTCTCCCAGCTGATGAATTCCGACGCTCGAGTAAACAAATTTTCCTAATCTTTCTGTTCAAGCGCCATCTAC,0.889 RPM ratio (pull-down/input)
16,GATGATTGTTCTCCCAGCTGATGAATTGGATTTGTCGAGTAAACAAATTTTCCTAATCTTTCTGTTCAAGCGCCATCTAC,0.979 RPM ratio (pull-down/input)
17,GATGATTGTTCTCCCAGCTGATGAATTATCATACTCGAGTAAACAAATTTTCCTAATCTTTCTGTTCAAGCGCCATCTAC,0.998 RPM ratio (pull-down/input)
18,GATGATTGTTCTCCCAGCTGATGAATTCCACTAGTCGAGTAAACAAATTTTCCTAATCTTTCTGTTCAAGCGCCATCTAC,0.775 RPM ratio (pull-down/input)
19,GATGATTGTTCTCCCAGCTGATGAATTTCACCCGTCGAGTAAACAAATTTTCCTAATCTTTCTGTTCAAGCGCCATCTAC,0.867 RPM ratio (pull-down/input)
20,GATGATTGTTCTCCCAGCTGATGAATTCCTCGGTTCGAGTAAACAAATTTTCCTAATCTTTCTGTTCAAGCGCCATCTAC,0.776 RPM ratio (pull-down/input)
21,GATGATTGTTCTCCCAGCTGATGAATTGCAGCAATCGAGTAAACAAATTTTCCTAATCTTTCTGTTCAAGCGCCATCTAC,1.33 RPM ratio (pull-down/input)

row,Sequence,binding signal
1,GATGATTGTTCTCCCAGCTGATGAATTCGGAGCGTCGAGTAAACAAATTTTCCTAATCTTTCTGTTCAAGCGCCATCTAC,0.828 RPM ratio (pull-down/input)
2,GATGATTGTTCTCCCAGCTGATGAATTTGACAGTTCGAGTAAACAAATTTTCCTAATCTTTCTGTTCAAGCGCCATCTAC,0.871 RPM ratio (pull-down/input)
3,GATGATTGTTCTCCCAGCTGATGAATTCGGCCGTTCGAGTAAACAAATTTTCCTAATCTTTCTGTTCAAGCGCCATCTAC,0.876 RPM ratio (pull-down/input)
4,GATGATTGTTCTCCCAGCTGATGAATTTAGACGGTCGAGTAAACAAATTTTCCTAATCTTTCTGTTCAAGCGCCATCTAC,0.968 RPM ratio (pull-down/input)
5,GATGATTGTTCTCCCAGCTGATGAATTCTATTCGTCGAGTAAACAAATTTTCCTAATCTTTCTGTTCAAGCGCCATCTAC,0.939 RPM ratio (pull-down/input)
6,GATGATTGTTCTCCCAGCTGATGAATTATGACACTCGAGTAAACAAATTTTCCTAATCTTTCTGTTCAAGCGCCATCTAC,1.01 RPM ratio (pull-down/input)
7,GATGATTGTTCTCCCAGCTGATGAATTCATTAGGTCGAGTAAACAAATTTTCCTAATCTTTCTGTTCAAGCGCCATCTAC,0.864 RPM ratio (pull-down/input)
8,GATGATTGTTCTCCCAGCTGATGAATTCACAGGATCGAGTAAACAAATTTTCCTAATCTTTCTGTTCAAGCGCCATCTAC,0.817 RPM ratio (pull-down/input)
9,GATGATTGTTCTCCCAGCTGATGAATTGATGGCCTCGAGTAAACAAATTTTCCTAATCTTTCTGTTCAAGCGCCATCTAC,0.955 RPM ratio (pull-down/input)
10,GATGATTGTTCTCCCAGCTGATGAATTTCAGATATCGAGTAAACAAATTTTCCTAATCTTTCTGTTCAAGCGCCATCTAC,0.878 RPM ratio (pull-down/input)
11,GATGATTGTTCTCCCAGCTGATGAATTTATATCCTCGAGTAAACAAATTTTCCTAATCTTTCTGTTCAAGCGCCATCTAC,1.02 RPM ratio (pull-down/input)
12,GATGATTGTTCTCCCAGCTGATGAATTGAAGAATTCGAGTAAACAAATTTTCCTAATCTTTCTGTTCAAGCGCCATCTAC,0.949 RPM ratio (pull-down/input)
13,GATGATTGTTCTCCCAGCTGATGAATTCCGTAGATCGAGTAAACAAATTTTCCTAATCTTTCTGTTCAAGCGCCATCTAC,0.859 RPM ratio (pull-down/input)
14,GATGATTGTTCTCCCAGCTGATGAATTTCGTTCTTCGAGTAAACAAATTTTCCTAATCTTTCTGTTCAAGCGCCATCTAC,0.887 RPM ratio (pull-down/input)
15,GATGATTGTTCTCCCAGCTGATGAATTACATCTCTCGAGTAAACAAATTTTCCTAATCTTTCTGTTCAAGCGCCATCTAC,1.13 RPM ratio (pull-down/input)
16,GATGATTGTTCTCCCAGCTGATGAATTGGTCTCCTCGAGTAAACAAATTTTCCTAATCTTTCTGTTCAAGCGCCATCTAC,0.893 RPM ratio (pull-down/input)
17,GATGATTGTTCTCCCAGCTGATGAATTTAAATTCTCGAGTAAACAAATTTTCCTAATCTTTCTGTTCAAGCGCCATCTAC,0.863 RPM ratio (pull-down/input)
18,GATGATTGTTCTCCCAGCTGATGAATTTGTGGGATCGAGTAAACAAATTTTCCTAATCTTTCTGTTCAAGCGCCATCTAC,1.06 RPM ratio (pull-down/input)
19,GATGATTGTTCTCCCAGCTGATGAATTAAAGCGATCGAGTAAACAAATTTTCCTAATCTTTCTGTTCAAGCGCCATCTAC,1.04 RPM ratio (pull-down/input)
20,GATGATTGTTCTCCCAGCTGATGAATTGAAGGATTCGAGTAAACAAATTTTCCTAATCTTTCTGTTCAAGCGCCATCTAC,0.821 RPM ratio (pull-down/input)
21,GATGATTGTTCTCCCAGCTGATGAATTGAACTCTTCGAGTAAACAAATTTTCCTAATCTTTCTGTTCAAGCGCCATCTAC,0.871 RPM ratio (pull-down/input)

# From publication PMC12820563, “FoxP3 forms a head-to-head dimer in vivo and stabilizes its multimerization on adjacent microsatellites”
